Measured values from the RNAGym collection of RNA variant scans (doi:10.7554/elife.90254).
Read counts are not given, so values of variants with three or more changes are uncertain.

B1: LINE1-mini (parent)
chain: GGCAGAGCUCAACACAGCGUGGCAAAGUGGCUGUGGCUAGACUGCC

Variants of: B1
Test: self-cleavage, relative activity (ratio to wild type); higher = more cleavage; in vitro, sequencing; the parent is a self-cleaving ribozyme

Variant | self-cleavage
UGCAUACGUCAACAAAGCGUGGCAAAGUGGCUGUGCCUAGUAUUCC [G1U G5U G7C C8G C15A G36C A41U C42A G44U] | 0.07
GGCGUAGCUCCACACAGCGUGUCAAAGUGGCUGUGGCUAGACUACC [A4G G5U A11C G22U G44A] | 0.05
GGCAGAGCUCAACACAACGUGGCAAAGUGGCUGUGGGUAGAUUGCC [G17A C37G C42U] | 0.01
CACAGAGCUCAAUACAGCGUGGCAAAGUGGCUGUCGUUAGACUGCG [G1C G2A C13U G35C C37U C46G] | 0.02
GGCAGUGCUCAACACGGCGUGGUAAAGUGGCUGUGGCUAGACUGCC [A6U A16G C23U] | 0.29
GGCAGCGUUUAACACAGCGUGGCAAUUUAGCGGUGGCGAGACAGCC [A6C C8U C10U A26U G27U G29A U32G U38G U43A] | 0.02
GCCAGAGAUCAUCACAGGGUGGCAAAGUGGCUGUGACUAGACUGCC [G2C C8A A12U C18G G36A] | 0.03
GGUAGUCAUCAACAAAGCAUGGCAAAGUGGCUGUGGCUAGACUGCG [C3U A6U G7C C8A C15A G19A C46G] | 1.57
GGGAGAGCUCAACACAGCGUGGCAAAGUGGCUGGUGCUAGACUGCC [C3G U34G G35U] | 0.04
GGCACAGCUAAACACCGCGUGGCAAAGUGGCUGUGGCUAGACUGCC [G5C C10A A16C] | 0.02
GGUAGAGUUCAACACAGCGUACCAAAGUGGCUGCGGCUAGACUGCC [C3U C8U G21A G22C U34C] | 0.09
GGCAGAGCUCAACACAGCGUAGCAAAGUGGGUGUAGCUCGACUGCC [G21A C31G G35A A39C] | 0.05
GGUAGAGCUCAACACAGCCUGGCGAAGUGGCUGUGGCUAGACUGCC [C3U G19C A24G] | 0.07
GGUAAAGCUCAACACAGCGUCGCAAAGUGGCUGUCGCUAGACUGCC [C3U G5A G21C G35C] | 0.15
UGCAGAGCUCAACACAGCGUGGCAAAGUGGCUGUUGCUCGACUGCC [G1U G35U A39C] | 0.1
GCCAGAGCUCAACACAGCGUGGCAAAGUGGCUGUGGCUAGUGUGCA [G2C A41U C42G C46A] | 0.04
GUCAGAGCUCAACAGAGCGUGGCAAAGUGGCUGUGGCUAGAGUGCC [G2U C15G C42G] | 0.01
GGCAGAGCCGAACACAUCGUGGCAAAGUGGCCGUGGAUAGAUUGGC [U9C C10G G17U U32C C37A C42U C45G] | 0
GACAGAGCUUAACACAGCGUGGCAAAGUGGCAGUGGCUAGACUGCC [G2A C10U U32A] | 0.04

Variant | self-cleavage
GGCAGAGUUCAACAAAGCGUGACAAGGUGGCUGUGGCUAGACUGCC [C8U C15A G22A A26G] | 0.11
GGCAGAGCUCAACACAACGUGGCAAAGUGGCUUCCGAUAGACUGCC [G17A G33U U34C G35C C37A] | 0.02
GGCAUAGCUCAACACAGCGCGGCUAAGCGGCUGUGGCUAGACUGCC [G5U U20C A24U U28C] | 0.13
GACAGAGCUCGACACAGCGUGGCAAAGUGGCUGUGAGUAGACUGCC [G2A A11G G36A C37G] | 0.03
UCCAAAGCUCAACGCAGCGUGGGAAAUUGGCUGUGGCUAGACUGCC [G1U G2C G5A A14G C23G G27U] | 0.03
GGCAGAGCUCAACGCAGCGUGGCAAAGUGGCUGGGGCUAGAAUGCC [A14G U34G C42A] | 0.03
CGCAGUGCUCAACACAGGGUGGCAAAGUGGCUGUGGCUAGACUGCC [G1C A6U C18G] | 0.06
GGCAGACCUAAACACAGCGUGGCAAAGUGGCUGUGGCUAGUCUGCC [G7C C10A A41U] | 0.01
GGCUGAGUUAAACACAGCGUGGCAAAGUGGCUGUGGCUAGAUUCCC [A4U C8U C10A C42U G44C] | 0.03
GGCCGAGCUCAACGCAGCGUGGCAAAGUGGCUGUGGCUAUACUGCC [A4C A14G G40U] | 0.15
GGAAGAGCUCAACACAGCGUGGCAAAGUGGCUGGGGCUAGAGUGCC [C3A U34G C42G] | 0.12
GGCAGUGCUCAACACAUCGUGGCAAAGUGGCUGUGGCUAGACUGCG [A6U G17U C46G] | 0.05
GGCAGAGCUCAAGACGGCGUGGAAAAGUGGCUGUGGCUAGACUGCC [C13G A16G C23A] | 0.17
UGCAGAGCUCAACACAGCGUGGCAAAGUGGCUGCGGAUAGCCUGGC [G1U U34C C37A A41C C45G] | 0.08
GGCCGAGCUCAAAUCAGCGUGGCAGAGUGGCUGUGGCUAGACUGCC [A4C C13A A14U A25G] | 0.48
UGCAGAGCUCUACACAGCGUGGCAAAGUGGCUGUGGGUAGACUGCC [G1U A11U C37G] | 0.01
GGGAGAGCUCAACACAGCGUGGCAAAGUGGCUGUAGCAAGACUGCC [C3G G35A U38A] | 0.19
GGCAGAGCUCUACCCAGCGUGGCAAAGUGUCUGUGGCUAGACUGCC [A11U A14C G30U] | 0.04
GGCACAGCUCAACACAGCCUAGCAAAGUGGCUGUGGCUACCCUGCC [G5C G19C G21A G40C A41C] | 0.02

Variant | self-cleavage
GGCAGCGCUCAGCACAGCGUGGCAAAGUGGCUGUGGCCAGACUGAC [A6C A12G U38C C45A] | 0.08
GGCAGAGAUCAAGACAGCGUGGCAAAGUGGCUGUGGCUAGACAGCC [C8A C13G U43A] | 0.18
GGCAGAGCUCAACACAGCGUGUCGAAGUAGCUGUGGCUAGACUCCC [G22U A24G G29A G44C] | 0.67
GGCAGAGCUCAACACAGCGUCGCAAAGUGACUGUGGCUAGACUGGC [G21C G30A C45G] | 0.14
GGCAGAACUCAACACAGCGGGGCAAAGUGGCUGUGGCAAGAAUGCC [G7A U20G U38A C42A] | 0.09
GGCAGAUCUCAACACACCGUGGCAGAAUGGCUGUGGCUAGACUGCC [G7U G17C A25G G27A] | 0.02
GGUAGAGCUCAACACAGCGUGGCAAAGUGGCGGUGGCUAGACUGUC [C3U U32G C45U] | 0.06
GCGAAAGUUCGACACAGCGUGGCAAAUUGACUGUGGCUAGACUGCC [G2C C3G G5A C8U A11G G27U G30A] | 0.03
GGCACAGCUCAACACAGUGUGGCAAAGUGGCUAUGGCUAGACUGAC [G5C C18U G33A C45A] | 0.01
GGCAGAGCUAAACACACCGUGGCACAGAGGCGGUCAGUAGAUUGCC [C10A G17C A25C U28A U32G G35C G36A C37G C42U] | 0
GGCAGAGCUCAACACAAGGUAGCAAAGUGCUUGUGGCUAGACUGCC [G17A C18G G21A G30C C31U] | 0.8
GGCAGAGCUCAUCACAGCGUGGGAAAGUGGCUGUGGCUAGACGGCC [A12U C23G U43G] | 0.01
GGCAGAGCUCAACAAUGCGUGGCAAAGUGAAUGUGGCUAGACGGCC [C15A A16U G30A C31A U43G] | 0.01
GGAAGAGGUUAUCAUAAGGUGGCACAGUGGCUGUGGCUAGUCUGCC [C3A C8G C10U A12U C15U G17A C18G A25C A41U] | 0.03
AGCAGAGCUCAACACAGCGUGGCAAAGUGGCUGUGGCUAGCCUUCC [G1A A41C G44U] | 0.08
GGGUGAGCUCAGCACAGCGUGGCAAAGUGGCUGUGGCUAGACUGCC [C3G A4U A12G] | 0.2
GGCAGUUCUCAACACAGCGUGGAAACGUGGCUGUGGCUAGAAUGCA [A6U G7U C23A A26C C42A C46A] | 0.09
GGCAGAGCUCAACACAGCGUGGCAAAGUGGCUGUGGCUAGACUAUG [G44A C45U C46G] | 0.18
